# The supplement of paper PMC8728848
# This is one part of the list.
# B1: CVN-E41G (protein)
# chain: MHHHHHHENLYFQSGNFSQACYNSAIQGSVLTSTCIRTNGGYNTSSIDLNSVIANVDGSLKWQGSNFIETCRNTQLAGSSELAAECKTRAQQFVSTKINLDDHIAAIDGTLKYE
# What was measured:
# Experiment in all cases: glycan array binding signal (z-score within array); higher = stronger binding
# Conditions in all cases: glycan notation: IUPAC condensed, linker removed; mutation: E41A
# [1] = molecular target: Gal(b1-4)GlcNAc(b1-2)[Gal(b1-4)GlcNAc(b1-6)]Man(a1-6)[Gal(b1-4)GlcNAc(b1-2)Man(a1-3)]Man(b1-4)GlcNAc(b1-4)[Fuc(a1-6)]GlcNAc
# Procedure, shortened: (§1)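 Arrays were curated from the Consortium for Functional Glycomics database, 3228 in total, and kept only where the protein sequence was available. Binding is expressed as a within-array Z-score. This score was averaged across arrays of the same protein sequence at different concentrations or buffers and across linkers, and negative values can be read as non-binding.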
# [2] = molecular target: Gal(b1-4)GlcNAc(b1-2)[Gal(b1-4)GlcNAc(b1-6)]Man(a1-6)[GlcNAc(b1-4)][Gal(b1-4)GlcNAc(b1-2)Man(a1-3)]Man(b1-4)GlcNAc(b1-4)GlcNAc
# Procedure, shortened: as §1
# [3] = molecular target: Gal(b1-4)GlcNAc(b1-2)[Gal(b1-4)GlcNAc(b1-6)]Man(a1-6)[GlcNAc(b1-4)][Gal(b1-4)GlcNAc(b1-2)[Gal(b1-4)GlcNAc(b1-4)]Man(a1-3)]Man(b1-4)GlcNAc(b1-4)[Fuc(a1-6)]GlcNAc
# Procedure, shortened: as §1
# [4] = molecular target: Gal(b1-4)GlcNAc(b1-3)Gal(b1-3)GalNAc
# Procedure, shortened: as §1
# [5] = molecular target: Gal(b1-4)GlcNAc(b1-3)Gal(b1-3)GlcNAc
# Procedure, shortened: as §1
# [6] = molecular target: Gal(b1-4)GlcNAc(b1-3)Gal(b1-4)Glc
# Procedure, shortened: as §1
# [7] = molecular target: Gal(b1-4)GlcNAc(b1-3)Gal(b1-4)GlcNAc
# Procedure, shortened: as §1
# [8] = molecular target: Gal(b1-4)GlcNAc(b1-3)Gal(b1-4)GlcNAc(b1-2)Man(a1-3)[Gal(b1-4)GlcNAc(b1-3)Gal(b1-4)GlcNAc(b1-2)Man(a1-6)]Man(b1-4)GlcNAc(b1-4)GlcNAc
# Procedure, shortened: as §1
# [9] = molecular target: Gal(b1-4)GlcNAc(b1-3)Gal(b1-4)GlcNAc(b1-2)Man(a1-3)[Gal(b1-4)GlcNAc(b1-3)Gal(b1-4)GlcNAc(b1-2)Man(a1-6)]Man(b1-4)GlcNAc(b1-4)[Fuc(a1-6)]GlcNAc
# Procedure, shortened: as §1
# [10] = molecular target: Gal(b1-4)GlcNAc(b1-3)Gal(b1-4)GlcNAc(b1-2)[Gal(b1-4)GlcNAc(b1-3)Gal(b1-4)GlcNAc(b1-6)]Man(a1-6)[Gal(b1-4)GlcNAc(b1-3)Gal(b1-4)GlcNAc(b1-2)Man(a1-3)]Man(b1-4)GlcNAc(b1-4)GlcNAc
# Procedure, shortened: as §1
# [11] = molecular target: Gal(b1-4)GlcNAc(b1-3)Gal(b1-4)GlcNAc(b1-2)[Gal(b1-4)GlcNAc(b1-3)Gal(b1-4)GlcNAc(b1-6)]Man(a1-6)[Gal(b1-4)GlcNAc(b1-3)Gal(b1-4)GlcNAc(b1-2)Man(a1-3)]Man(b1-4)GlcNAc(b1-4)[Fuc(a1-6)]GlcNAc
# Procedure, shortened: as §1
# [12] = molecular target: Gal(b1-4)GlcNAc(b1-3)Gal(b1-4)GlcNAc(b1-3)Gal(b1-4)GlcNAc
# Procedure, shortened: as §1
# [13] = molecular target: Gal(b1-4)GlcNAc(b1-3)Gal(b1-4)GlcNAc(b1-3)Gal(b1-4)GlcNAc(b1-2)Man(a1-3)[Gal(b1-4)GlcNAc(b1-3)Gal(b1-4)GlcNAc(b1-3)Gal(b1-4)GlcNAc(b1-2)Man(a1-6)]Man(b1-4)GlcNAc(b1-4)GlcNAc
# Procedure, shortened: as §1
# [14] = molecular target: Gal(b1-4)GlcNAc(b1-3)Gal(b1-4)GlcNAc(b1-3)Gal(b1-4)GlcNAc(b1-2)Man(a1-3)[Gal(b1-4)GlcNAc(b1-3)Gal(b1-4)GlcNAc(b1-3)Gal(b1-4)GlcNAc(b1-2)Man(a1-6)]Man(b1-4)GlcNAc(b1-4)[Fuc(a1-6)]GlcNAc
# Procedure, shortened: as §1
# [15] = molecular target: Gal(b1-4)GlcNAc(b1-3)Gal(b1-4)GlcNAc(b1-3)Gal(b1-4)GlcNAc(b1-2)[Gal(b1-4)GlcNAc(b1-3)Gal(b1-4)GlcNAc(b1-3)Gal(b1-4)GlcNAc(b1-6)]Man(a1-6)[Gal(b1-4)GlcNAc(b1-3)Gal(b1-4)GlcNAc(b1-3)Gal(b1-4)GlcNAc(b1-2)Man(a1-3)]Man(b1-4)GlcNAc(b1-4)[Fuc(a1-6)]GlcNAc
# Procedure, shortened: as §1
# [16] = molecular target: Gal(b1-4)GlcNAc(b1-3)Gal(b1-4)GlcNAc(b1-3)Gal(b1-4)GlcNAc(b1-3)Gal(b1-4)GlcNAc(b1-2)Man(a1-3)[Gal(b1-4)GlcNAc(b1-3)Gal(b1-4)GlcNAc(b1-3)Gal(b1-4)GlcNAc(b1-3)Gal(b1-4)GlcNAc(b1-2)Man(a1-6)]Man(b1-4)GlcNAc(b1-4)GlcNAc
# Procedure, shortened: as §1
# [17] = molecular target: Gal(b1-4)GlcNAc(b1-3)Gal(b1-4)GlcNAc(b1-3)Gal(b1-4)GlcNAc(b1-3)Gal(b1-4)GlcNAc(b1-2)Man(a1-3)[Gal(b1-4)GlcNAc(b1-3)Gal(b1-4)GlcNAc(b1-3)Gal(b1-4)GlcNAc(b1-3)Gal(b1-4)GlcNAc(b1-2)Man(a1-6)]Man(b1-4)GlcNAc(b1-4)[Fuc(a1-6)]GlcNAc
# Procedure, shortened: as §1
# [18] = molecular target: Gal(b1-4)GlcNAc(b1-3)Gal(b1-4)GlcNAc(b1-3)Gal(b1-4)GlcNAc(b1-3)Gal(b1-4)GlcNAc(b1-2)[Gal(b1-4)GlcNAc(b1-3)Gal(b1-4)GlcNAc(b1-3)Gal(b1-4)GlcNAc(b1-3)Gal(b1-4)GlcNAc(b1-6)]Man(a1-6)[Gal(b1-4)GlcNAc(b1-3)Gal(b1-4)GlcNAc(b1-3)Gal(b1-4)GlcNAc(b1-3)Gal(b1-4)GlcNAc(b1-2)Man(a1-3)]Man(b1-4)GlcNAc(b1-4)[Fuc(a1-6)]GlcNAc
# Procedure, shortened: as §1
# [19] = molecular target: Gal(b1-4)GlcNAc(b1-3)Gal(b1-4)GlcNAc(b1-3)Gal(b1-4)GlcNAc(b1-3)Gal(b1-4)GlcNAc(b1-3)Gal(b1-4)GlcNAc(b1-2)Man(a1-3)[Gal(b1-4)GlcNAc(b1-3)Gal(b1-4)GlcNAc(b1-3)Gal(b1-4)GlcNAc(b1-3)Gal(b1-4)GlcNAc(b1-3)Gal(b1-4)GlcNAc(b1-2)Man(a1-6)]Man(b1-4)GlcNAc(b1-4)GlcNAc
# Procedure, shortened: as §1
# [20] = molecular target: Gal(b1-4)GlcNAc(b1-3)Gal(b1-4)GlcNAc(b1-3)Gal(b1-4)GlcNAc(b1-3)Gal(b1-4)GlcNAc(b1-3)Gal(b1-4)GlcNAc(b1-2)Man(a1-3)[Gal(b1-4)GlcNAc(b1-3)Gal(b1-4)GlcNAc(b1-3)Gal(b1-4)GlcNAc(b1-3)Gal(b1-4)GlcNAc(b1-3)Gal(b1-4)GlcNAc(b1-2)Man(a1-6)]Man(b1-4)GlcNAc(b1-4)[Fuc(a1-6)]GlcNAc
# Procedure, shortened: as §1
# [21] = molecular target: Gal(b1-4)GlcNAc(b1-3)Gal(b1-4)GlcNAc(b1-3)Gal(b1-4)GlcNAc(b1-3)Gal(b1-4)GlcNAc(b1-3)Gal(b1-4)GlcNAc(b1-2)[Gal(b1-4)GlcNAc(b1-3)Gal(b1-4)GlcNAc(b1-3)Gal(b1-4)GlcNAc(b1-3)Gal(b1-4)GlcNAc(b1-3)Gal(b1-4)GlcNAc(b1-6)]Man(a1-6)[Gal(b1-4)GlcNAc(b1-3)Gal(b1-4)GlcNAc(b1-3)Gal(b1-4)GlcNAc(b1-3)Gal(b1-4)GlcNAc(b1-3)Gal(b1-4)GlcNAc(b1-2)Man(a1-3)]Man(b1-4)GlcNAc(b1-4)[Fuc(a1-6)]GlcNAc
# Procedure, shortened: as §1
# [22] = molecular target: Gal(b1-4)GlcNAc(b1-3)Gal(b1-4)GlcNAc(b1-3)Gal(b1-4)GlcNAc(b1-3)Gal(b1-4)GlcNAc(b1-3)Gal(b1-4)GlcNAc(b1-3)Gal(b1-4)GlcNAc(b1-2)Man(a1-3)[Gal(b1-4)GlcNAc(b1-3)Gal(b1-4)GlcNAc(b1-3)Gal(b1-4)GlcNAc(b1-3)Gal(b1-4)GlcNAc(b1-3)Gal(b1-4)GlcNAc(b1-3)Gal(b1-4)GlcNAc(b1-2)Man(a1-6)]Man(b1-4)GlcNAc(b1-4)GlcNAc
# Procedure, shortened: as §1
# [23] = molecular target: Gal(b1-4)GlcNAc(b1-3)Gal(b1-4)GlcNAc(b1-3)GalNAc
# Procedure, shortened: as §1
binder,measurement,setting,value
B1,glycan array binding signal (z-score),[1],-0.175
same,glycan array binding signal (z-score),[2],-0.217
same,glycan array binding signal (z-score),[3],-0.2
same,glycan array binding signal (z-score),[4],-0.186
same,glycan array binding signal (z-score),[5],-0.175
same,glycan array binding signal (z-score),[6],-0.117
same,glycan array binding signal (z-score),[7],-0.197
same,glycan array binding signal (z-score),[8],-0.004
same,glycan array binding signal (z-score),[9],-0.219
same,glycan array binding signal (z-score),[10],0.189
same,glycan array binding signal (z-score),[11],-0.12
same,glycan array binding signal (z-score),[12],-0.22
same,glycan array binding signal (z-score),[13],-0.071
same,glycan array binding signal (z-score),[14],-0.164
same,glycan array binding signal (z-score),[15],-0.141
same,glycan array binding signal (z-score),[16],-0.186
same,glycan array binding signal (z-score),[17],-0.178
same,glycan array binding signal (z-score),[18],-0.164
same,glycan array binding signal (z-score),[19],-0.17
same,glycan array binding signal (z-score),[20],-0.139
same,glycan array binding signal (z-score),[21],-0.112
same,glycan array binding signal (z-score),[22],-0.142
same,glycan array binding signal (z-score),[23],-0.093
